# Where a chain is given by its changes, count along the chain named.
# B1: 24D12.2H9: anti-Gal3 antibody (antibody)
# heavy: QVQLKQSGPGLVQPSQSLSITCTVSGFSLTSYGVHWVRQAPGKGLEWLGVIWSGGSTDYNAAFMSRLSISKDNSKSQVFFKMNSLQADDTAIYYCAKSPDGYDVAWFGYWGQGTLVTVSAASTKGPSVFPLAPCSRSTSESTAALGCLVKDYFPEPVTVSWNSGALTSGVHTFPAVLQSSGLYSLSSVVTVPSSSLGTKTYTCNVDHKPSNTKVDKRV[in this place human IgG4 Fc with S228P (EU numbers)]
# light: DIVMTQSHKFMSTSVGDRVSITCKASQDVRTAVAWYQQKPGQSPKLLIYWASTRHTGVPDRFTGSGSGTDFTLTLSNVQSEDLADYFCQQYSSYPWTFGGGTKLEIKRTVAAPSVFIFPPSDEQLKSGTASVVCLLNNFYPREAKVQWKVDNALQSGNSQESVTEQDSKDSTYSLSSTLTLSKADYEKHKVYACEVTHQGLSSPVTKSFNRGEC
# modifications: 24D12.2H9 heavy chain peptide sequence; 24D12.2H9 light chain peptide sequence
# notes: anti-Gal3 antibody
# B2: 6B3.2D3: anti-Gal3 antibody (antibody)
# heavy: B1 heavy with A40P, M64I, S98G, D100Y, G101D, V104L, A105G, G108A
# light: SIVMTQTPKFLLVSAGDRVTITCKASQSVSNDVAWYQQKPGQSPKLLIYYASNRYTGVPDRFTGSGYGTDFTFTISTVQAEDLAVYFCQQDYTSPYTFGGGTKLEIKRTVAAPSVFIFPPSDEQLKSGTASVVCLLNNFYPREAKVQWKVDNALQSGNSQESVTEQDSKDSTYSLSSTLTLSKADYEKHKVYACEVTHQGLSSPVTKSFNRGEC
# modifications: 6B3.2D3 heavy chain peptide sequence; 6B3.2D3 light chain peptide sequence
# notes: anti-Gal3 antibody
# B3: 6H6.2D6: anti-Gal3 antibody (antibody)
# heavy: QIQLVQSGPELKKPGETVKISCKASGYTFTTYGMSWVKQAPGKGLKWMAWINTYSGVPTYADDFKGRFAFSLETSASTAYLQINNLTNEDTATYFCARGPYAMDYWGQGTSVTVSSASTKGPSVFPLAPCSRSTSESTAALGCLVKDYFPEPVTVSWNSGALTSGVHTFPAVLQSSGLYSLSSVVTVPSSSLGTKTYTCNVDHKPSNTKVDKRV[in this place human IgG4 Fc with S228P (EU numbers)]
# light: DIQMTQTTSSLSASLGDRVTISCSASQGISNYLNWYQQKPDGTVKLLIYYTSSLHSGVPSRFSGSGSGTDYSLTISNLEPEDIATYYCQQYSELPYTFGSGTKLEIKRTVAAPSVFIFPPSDEQLKSGTASVVCLLNNFYPREAKVQWKVDNALQSGNSQESVTEQDSKDSTYSLSSTLTLSKADYEKHKVYACEVTHQGLSSPVTKSFNRGEC
# modifications: 6H6.2D6 heavy chain peptide sequence; 6H6.2D6 light chain peptide sequence
# notes: anti-Gal3 antibody
# B4: 13G4.2F8: anti-Gal3 antibody (antibody)
# heavy: QVQLQQPGAELVKPGASVKLSCKASGYTFTSYWMHWVKQRPGQGLEWIGMIHPNSGSTDYNEKFKNKATLNVDKSSSTAYIQLSSLTSEDSAVYYCTRWGIYYYARDYWGQGTTLTVSSASTKGPSVFPLAPCSRSTSESTAALGCLVKDYFPEPVTVSWNSGALTSGVHTFPAVLQSSGLYSLSSVVTVPSSSLGTKTYTCNVDHKPSNTKVDKRV[in this place human IgG4 Fc with S228P (EU numbers)]
# light: DIVMTQSQKFMSTSVGERVSITCKASQNVGTNVAWYQQKAGQSLELLIYGASNRHTGVPDRFTGSGSGTDFTLTITNVQSEDMTNYFCEQYSNFPLTFGAGTKLELKRTVAAPSVFIFPPSDEQLKSGTASVVCLLNNFYPREAKVQWKVDNALQSGNSQESVTEQDSKDSTYSLSSTLTLSKADYEKHKVYACEVTHQGLSSPVTKSFNRGEC
# modifications: 13G4.2F8 heavy chain peptide sequence; 13G4.2F8 light chain peptide sequence
# notes: anti-Gal3 antibody
# B5: 19D9.2E5: anti-Gal3 antibody (antibody)
# heavy: QIQLVQSGPELKKPGETVKISCKASGYTFTTYGMGWVKQAPGKGLKWMGWINTYSGVPTYADDFKGRFAFSLETSTSTAYLQINNLKNEDMATYFCATPYEYDGAYWGQGTLVTVSAASTKGPSVFPLAPCSRSTSESTAALGCLVKDYFPEPVTVSWNSGALTSGVHTFPAVLQSSGLYSLSSVVTVPSSSLGTKTYTCNVDHKPSNTKVDKRV[in this place human IgG4 Fc with S228P (EU numbers)]
# light: DVVMTQTPLTLSVTIGQPASISCKSSQSLLHSDGKTYLNWLLQRPGQPPKRLMYLVSTLDSGVPDRFTGSGSGTDFTLKISRVEAEDLGVYYCWQGTHFPLTFGAGTKPERTVAAPSVFIFPPSDEQLKSGTASVVCLLNNFYPREAKVQWKVDNALQSGNSQESVTEQDSKDSTYSLSSTLTLSKADYEKHKVYACEVTHQGLSSPVTKSFNRGEC
# modifications: 19D9.2E5 heavy chain peptide sequence; 19D9.2E5 light chain peptide sequence
# notes: anti-Gal3 antibody
# B6: 13H12.2F8: anti-Gal3 antibody (antibody)
# heavy: B5 heavy with G35S, T76A, M91T, T98V
# light: DVVMTQTPLTLSVTIGQPASISCKSSQSLFHSDGKTYLNWLLQRPGQSPKRLIYLVSKLDSGVPDRFTGSGSGTDFTPKISRVEDEDLGVYYCWQGTHFPLTFGAGTKLEMKRTVAAPSVFIFPPSDEQLKSGTASVVCLLNNFYPREAKVQWKVDNALQSGNSQESVTEQDSKDSTYSLSSTLTLSKADYEKHKVYACEVTHQGLSSPVTKSFNRGEC
# modifications: 13H12.2F8 heavy chain peptide sequence; 13H12.2F8 light chain peptide sequence
# notes: anti-Gal3 antibody
# Experiments:
# [1] = tested on: Human Gal3 peptides; assay: Gal3 peptide binding ELISA (Example 8); conditions: antibody 5 μg/mL
# Procedure: Gal3 peptide binding activity of additional exemplary anti-Gal3 antibodies was assessed with the same peptides as described in FIG. 18 (SEQ ID NOs: 3-26). Human Gal3 peptides (LifeTein, custom order) and human Gal3 proteins (R&D Systems, 8259-GA; TrueBinding, QCB200349) were diluted in PBS (Corning, 21-030-CM) to concentrations of at least 100 μg/mL (peptides) or 1 μg/mL (proteins), and added to the wells of several 96-well ELISA plates (Thermo Fisher, 44-2404-21). After incubating the plates at 4° C. overnight, the plates were washed three times with PBST (PBS with 0.05% Tween 20 [VWR, 0777]). The plates were then blocked for an hour with 2% BSA (EMD Millipore, 126609) in PBST at room temperature with gentle rocking. Thereafter, the 2% BSA in PBST was discarded and Gal3-binding antibodies (reformatted hIgG4 [S228P]) were diluted in 2% BSA in PBST to concentrations of 5 μg/mL and added to the wells. The plates were incubated for an hour at room temperature with gentle rocking and then washed three times with PBST. Afterwards, Peroxidase AffiniPure F(ab′)2 Fragment Goat Anti-Human IgG (H+L) polyclonal antibody (Jackson ImmunoResearch, 109-036-003), was diluted in 2% BSA in PBST (1:4000) and added to the wells. The plates were incubated for 1 hour at room temperature with gentle rocking and then washed three times with PBST. TMB substrate (Thermo Scientific, 34029) was then added to each well. The reaction was stopped with 1M HCl (JT Baker, 5620-02) and read using a plate reader (Molecular Devices) at absorbance of 450 nm.
# [2] = target: T1, hGal3 peptide (Homo sapiens, UniProt P17931); assay: Gal3 peptide library binding ELISA (Example 2)
# T1 construct: a library of 24 amino acid peptides representing portions of Gal3
# Procedure: To identify the epitopes to which Gal3 antibodies with and without Gal3-INSR blocking activity bound, a library of 24 amino acid peptides representing portions of Gal3, depicted in FIG. 18, was produced and the ability of each peptide to bind Gal3 antibodies was evaluated by ELISA. At least 2 μg/ml of hGal3 peptide in 50 μl of PBS or 0.1 μg/ml of full-length human Gal3 protein (GenScript) and human Galectin-3 protein (Acro Biosystems, GA3-H5129) were diluted in PBS (Corning, 21-030-CM) to concentrations of at least 2 μg/ml or 0.1 μg/ml, respectively, and added to the wells of a 96-well ELISA plate (Thermo Fisher, 44-2404-21). After incubating the plate at 4° C. overnight, the plate was washed three times with PBST (PBS with 0.05% Tween 20 [VWR, 0777]). The plate was then blocked for an hour with 2% BSA (EMD Millipore, 126609) in PBST at room temperature with gentle rocking. Thereafter, the 2% BSA in PBST was discarded and human Galectin-3 hybridoma supernatants or antibodies were diluted in 2% BSA in PBST to concentrations of at least 0.1 μg/ml and added to the wells. The plate was incubated for an hour at room temperature with gentle rocking and then washed three times with PBST. Afterwards, Goat Anti-Mouse IgG-HRP (Jackson ImmunoResearch, 115-036-1461) or Goat Anti-Rat IgG HRP (Abcam, ab205720) diluted in 2% BSA in PBST (1:4000) were added to the wells. The plate was incubated for 30 minutes to 1 hour at room temperature with gentle rocking and then washed three times with PBST. TMB substrate (Thermo Scientific, 34029) was then added to each well. The reaction was stopped with 1M HCl (JT Baker, 5620-02) and read using a plate reader (Molecular Devices) at absorbance of 450 nm.
molecule,measurement,setting,value
B1,binding to any of the tested Gal3 peptides,[1],not found to bind
B2,binding to any of the tested Gal3 peptides,[1],not found to bind
B3,"binding to Gal3 peptide 1 (amino acids 1-20, SEQ ID NO: 3)",[2],bound
same,"binding to Gal3 peptide 7 (amino acids 61-80, SEQ ID NO: 9)",[2],bound
B4,binding to any of the tested Gal3 peptides,[1],not found to bind
B5,"binding to Gal3 peptide 6 (amino acids 51-70, SEQ ID NO: 8)",[2],bound
same,"binding to Gal3 peptide 7 (amino acids 61-80, SEQ ID NO: 9)",[2],bound
B6,"binding to Gal3 peptide 6 (amino acids 51-70, SEQ ID NO: 8)",[2],bound
same,"binding to Gal3 peptide 7 (amino acids 61-80, SEQ ID NO: 9)",[2],bound

# Reference: patent publication US20220411514A1, “ANTI-GAL3 ANTIBODIES AND METHODS OF USE FOR INSULIN RESISTANCE” (TrueBinding, Inc., priority 2021, published 2022)
